Reference: the supplement of paper PMC12217912
Some of the results follow. The full chains were built here from the parent and the listed change. Inactive controls read about 0.05.

B1: TEV protease; numbered along this chain (parent)
chain: MGESLFKGPRDYNPISSSICHLTNESDGHTTSLYGIGFGPFIITNKHLFRRNNGTLVVQSLHGVFKVKDTTTLQQHLVDGRDMIIIRMPKDFPPFPQKLKFREPQREERICLVTTNFQTKSMSSMVSDTSCTFPSGDGIFWKHWIQTKDGQCGSPLVSTRDGFIVGIHSASNFTNTNNYFTSVPKNFMELLTNQEAQQWVSGWRLNADSVLWGGHKVFMVKPEEPFQPVKEATQL

Variants of: B1
Assay: raw area under fraction-flipped curve 0-4 h after induction (AUC4h, not background-subtracted), DNA-recorder readout of cleavage of the substrate (dimensionless); higher = more cleavage of the substrate by the protease variant
Conditions: temperature: 34 °C; time window: 0-4 h after rhamnose induction
Method: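 In vivo DNA recorder in E. coli TOP10(DE3) ΔrhaA at 34 °C. Each TEVp single-site mutant (parent TEVp 0) is paired with a single-site variant of the 7-mer TEVs (canonical ENLYFQ|S). The substrate sits between flexible linkers in a Bxb1-sfGFP-TEVs-SsrA fusion, so cleavage stabilises Bxb1 and speeds flipping of a recombination array, read by NGS. The value is the raw area under the fraction-flipped curve over 0-4 h after rhamnose induction (AUC4h), with ≥20 reads per time point. It is not background-subtracted; inactive controls average about 0.047.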
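Also: Bxb1 expression induced with 0.2% (w/v) L-rhamnose at OD600 near 0.5, cultures sampled hourly, flipped fraction per protease–substrate barcode pair counted by paired-end Illumina sequencing.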

Variant: MGESLFKGPRDYNPISSSICHLTNESDGHTTSLYGIGFGPFIITNKHLFRRNNGTLVVQSLHGVFKVKDTTTLQQHLVDGRDMIIIRMPKDFTPFPQKLKFREPQREERICLVTTNFQTKSMSSMVSDTSCTFPSGDGIFWKHWIQTKDGQCGSPLVSTRDGFIVGIHSASNFTNTNNYFTSVPKNFMELLTNQEAQQWVSGWRLNADSVLWGGHKVFMVKPEEPFQPVKEATQL [P93T]
- area with substrate ENLYFQC: 0.107
- area with substrate ENLYFQG: 0.104
- area with substrate ENLYFQK: 0.0512
- area with substrate ENLYFQL: 0.0626
- area with substrate ENLYFQM: 0.0852
- area with substrate ENLYFQP: 0.0668
- area with substrate ENLYFQR: 0.056
- area with substrate ENLYFQS: 0.099
- area with substrate ENLYFQT: 0.0779
- area with substrate ENLYFQW: 0.0701

Variant: MGESLFKGPRDYNPISSSICHLTNESDGHTTSLYGIGFGPFIITNKHLFRRNNGTLVVQSLHGVFKVKDTTTLQQHLVDGRDMIIIRMPKDFVPFPQKLKFREPQREERICLVTTNFQTKSMSSMVSDTSCTFPSGDGIFWKHWIQTKDGQCGSPLVSTRDGFIVGIHSASNFTNTNNYFTSVPKNFMELLTNQEAQQWVSGWRLNADSVLWGGHKVFMVKPEEPFQPVKEATQL [P93V]
- area with substrate ENLYFQC: 0.0944
- area with substrate ENLYFQD: 0.0403
- area with substrate ENLYFQG: 0.102
- area with substrate ENLYFQK: 0.0555
- area with substrate ENLYFQL: 0.0496
- area with substrate ENLYFQR: 0.0518
- area with substrate ENLYFQS: 0.104
- area with substrate ENLYFQT: 0.0677
- area with substrate ENLYFQW: 0.0599

Variant: MGESLFKGPRDYNPISSSICHLTNESDGHTTSLYGIGFGPFIITNKHLFRRNNGTLVVQSLHGVFKVKDTTTLQQHLVDGRDMIIIRMPKDFPFFPQKLKFREPQREERICLVTTNFQTKSMSSMVSDTSCTFPSGDGIFWKHWIQTKDGQCGSPLVSTRDGFIVGIHSASNFTNTNNYFTSVPKNFMELLTNQEAQQWVSGWRLNADSVLWGGHKVFMVKPEEPFQPVKEATQL [P94F]
- area with substrate ENLYFQC: 0.112
- area with substrate ENLYFQK: 0.0727
- area with substrate ENLYFQQ: 0.0538
- area with substrate ENLYFQS: 0.0969
- area with substrate ENLYFQT: 0
- area with substrate ENLYFQW: 0.0782

Variant: MGESLFKGPRDYNPISSSICHLTNESDGHTTSLYGIGFGPFIITNKHLFRRNNGTLVVQSLHGVFKVKDTTTLQQHLVDGRDMIIIRMQKDFPPFPQKLKFREPQREERICLVTTNFQTKSMSSMVSDTSCTFPSGDGIFWKHWIQTKDGQCGSPLVSTRDGFIVGIHSASNFTNTNNYFTSVPKNFMELLTNQEAQQWVSGWRLNADSVLWGGHKVFMVKPEEPFQPVKEATQL [P89Q]
- area with substrate ENLYFQC: 0.0868
- area with substrate ENLYFQD: 0.0672
- area with substrate ENLYFQG: 0.081
- area with substrate ENLYFQM: 0.097
- area with substrate ENLYFQN: 0.0747
- area with substrate ENLYFQP: 0.0441
- area with substrate ENLYFQQ: 0.0642
- area with substrate ENLYFQR: 0.0545
- area with substrate ENLYFQS: 0.0818
- area with substrate ENLYFQT: 0.0442
- area with substrate ENLYFQW: 0.0498
- area with substrate ENLYFQY: 0.0715

Variant: MGESLFKGPRDYNPISSSICHLTNESDGHTTSLYGIGFGPFIITNKHLFRRNNGTLVVQSLHGVFKVKDTTTLQQHLVDGRDMIIIRMPKDDPPFPQKLKFREPQREERICLVTTNFQTKSMSSMVSDTSCTFPSGDGIFWKHWIQTKDGQCGSPLVSTRDGFIVGIHSASNFTNTNNYFTSVPKNFMELLTNQEAQQWVSGWRLNADSVLWGGHKVFMVKPEEPFQPVKEATQL [F92D]
- area with substrate ENLYFQC: 0.0619
- area with substrate ENLYFQD: 0.053
- area with substrate ENLYFQF: 0.0433
- area with substrate ENLYFQG: 0.0633
- area with substrate ENLYFQH: 0.0655
- area with substrate ENLYFQI: 0.0568
- area with substrate ENLYFQM: 0.052
- area with substrate ENLYFQP: 0.0549
- area with substrate ENLYFQR: 0.0562
- area with substrate ENLYFQS: 0.0665
- area with substrate ENLYFQT: 0.053
- area with substrate ENLYFQW: 0.057

Variant: MGESLFKGPRDYNPISSSICHLTNESDGHTTSLYGIGFGPFIITNKHLFRRNNGTLVVQSLHGVFKVKDTTTLQQHLVDGRDMIIIRMPKDFPPDPQKLKFREPQREERICLVTTNFQTKSMSSMVSDTSCTFPSGDGIFWKHWIQTKDGQCGSPLVSTRDGFIVGIHSASNFTNTNNYFTSVPKNFMELLTNQEAQQWVSGWRLNADSVLWGGHKVFMVKPEEPFQPVKEATQL [F95D]
- area with substrate ENLYFQC: 0.0469
- area with substrate ENLYFQL: 0.0512
- area with substrate ENLYFQN: 0.0441
- area with substrate ENLYFQR: 0.0454
- area with substrate ENLYFQS: 0.0451
- area with substrate ENLYFQV: 0.0421

Variant: MGESLFKGPRDYNPISSSICHLTNESDGHTTSLYGIGFGPFIITNKHLFRRNNGTLVVQSLHGVFKVKDTTTLQQHLVDGRDMIIIAMPKDFPPFPQKLKFREPQREERICLVTTNFQTKSMSSMVSDTSCTFPSGDGIFWKHWIQTKDGQCGSPLVSTRDGFIVGIHSASNFTNTNNYFTSVPKNFMELLTNQEAQQWVSGWRLNADSVLWGGHKVFMVKPEEPFQPVKEATQL [R87A]
- area with substrate ENLYFQC: 0.0993
- area with substrate ENLYFQD: 0.0864
- area with substrate ENLYFQG: 0.0885
- area with substrate ENLYFQL: 0.0611
- area with substrate ENLYFQM: 0.0812
- area with substrate ENLYFQP: 0.054
- area with substrate ENLYFQQ: 0.069
- area with substrate ENLYFQR: 0.0584
- area with substrate ENLYFQS: 0.101

Variant: MGESLFKGPRDYNPISSSICHLTNESDGHTTSLYGIGFGPFIITNKHLFRRNNGTLVVQSLHGVFKVKDTTTLQQHLVDGRDMIIIYMPKDFPPFPQKLKFREPQREERICLVTTNFQTKSMSSMVSDTSCTFPSGDGIFWKHWIQTKDGQCGSPLVSTRDGFIVGIHSASNFTNTNNYFTSVPKNFMELLTNQEAQQWVSGWRLNADSVLWGGHKVFMVKPEEPFQPVKEATQL [R87Y]
- area with substrate ENLYFQC: 0.121
- area with substrate ENLYFQE: 0.0651
- area with substrate ENLYFQK: 0.0592
- area with substrate ENLYFQL: 0.0822
- area with substrate ENLYFQM: 0.0722
- area with substrate ENLYFQN: 0.0784
- area with substrate ENLYFQP: 0.0568
- area with substrate ENLYFQR: 0.0521
- area with substrate ENLYFQS: 0.0958
- area with substrate ENLYFQT: 0.072

Variant: MGESLFKGPRDYNPISSSICHLTNESDGHTTSLYGIGFGPFIITNKHLFRRNNGTLVVQSLHGVFKVKDTTTLQQHLVDGRDMIIISMPKDFPPFPQKLKFREPQREERICLVTTNFQTKSMSSMVSDTSCTFPSGDGIFWKHWIQTKDGQCGSPLVSTRDGFIVGIHSASNFTNTNNYFTSVPKNFMELLTNQEAQQWVSGWRLNADSVLWGGHKVFMVKPEEPFQPVKEATQL [R87S]
- area with substrate ENLYFQC: 0.122
- area with substrate ENLYFQD: 0.0675
- area with substrate ENLYFQF: 0.0683
- area with substrate ENLYFQG: 0.068
- area with substrate ENLYFQI: 0.0435
- area with substrate ENLYFQK: 0.0581
- area with substrate ENLYFQL: 0.0635
- area with substrate ENLYFQM: 0.0716
- area with substrate ENLYFQN: 0.0679
- area with substrate ENLYFQS: 0.0798
- area with substrate ENLYFQT: 0.0618
- area with substrate ENLYFQW: 0.0585
- area with substrate ENLYFQY: 0.0705

Variant: MGESLFKGPRDYNPISSSICHLTNESDGHTTSLYGIGFGPFIITNKHLFRRNNGTLVVQSLHGVFKVKDTTTLQQHLVDGRDMIIIRMPKKFPPFPQKLKFREPQREERICLVTTNFQTKSMSSMVSDTSCTFPSGDGIFWKHWIQTKDGQCGSPLVSTRDGFIVGIHSASNFTNTNNYFTSVPKNFMELLTNQEAQQWVSGWRLNADSVLWGGHKVFMVKPEEPFQPVKEATQL [D91K]
- area with substrate ENLYFQC: 0.0928
- area with substrate ENLYFQH: 0.0694
- area with substrate ENLYFQK: 0.0615
- area with substrate ENLYFQL: 0.0536
- area with substrate ENLYFQM: 0.068
- area with substrate ENLYFQR: 0.0565
- area with substrate ENLYFQS: 0.0996
- area with substrate ENLYFQY: 0.0786
